# Measured values reported in PMC11995724, “Antibiotic target discovery by integrated phenotypic and activity-based profiling of electrophilic fragments” (Cell chemical biology, 2025).
# In all, about 3,200 compounds went through this assay and about 110 (3.4%) showed an effect of 50% or more. Some of the results follow.
# System: T1, V. cholerae SAD30
# T1 construct: SAD30
# Set-up: species or system S. aureus MSSA476 (TSB) or V. cholerae SAD30 (LB); 384-well bacterial growth screen at 25 uM, OD600 relative to DMSO control
# Details: relative growth, OD600, LB; 25 µM; inhibitor
row,Structure (SMILES),% of control remaining [%]
1,"C=CC(=O)NC1CCS(=O)(=O)C(C)C1 (stereo not drawn) [3-A10, N-(2-methyl-1,1-dioxo-1lambda6-thian-4-yl)prop-2-enamide]",115.203
2,"C=CCNC(=O)C(C#N)=Cc1ccc(-c2ccc(F)cc2)s1 [9-C12, 2-cyano-3-[5-(4-fluorophenyl)thiophen-2-yl]-N-(prop-2-en-1-yl)prop-2-enamide]",81.1013
3,"C=CC(=O)NCC(C)(C)C1(O)CCOC1 (stereo not drawn) [3-K13, N-[2-(3-hydroxyoxolan-3-yl)-2-methylpropyl]prop-2-enamide]",90.8546
4,"O=C(CCl)Nc1nnc(SCc2ccccc2)s1 [4-F15, N-[5-(benzylsulfanyl)-1,3,4-thiadiazol-2-yl]-2-chloroacetamide]",93.1637
5,"N#CC(=CC=Cc1ccccc1[N+](=O)[O-])C(=O)Nc1ccccc1 [8-P20, 2-cyano-5-(2-nitrophenyl)-N-phenylpenta-2,4-dienamide]",83.4126
6,"CC(Cl)C(=O)Nc1ncc(C(F)(F)F)cc1Cl (stereo not drawn) [5-L22, 2-chloro-N-[3-chloro-5-(trifluoromethyl)pyridin-2-yl]propanamide]",106.42
7,"COCCNC(=O)C(C#N)=Cc1sccc1C [9-M17, 2-cyano-N-(2-methoxyethyl)-3-(3-methylthiophen-2-yl)prop-2-enamide]",85.9959
8,"Cc1cccc(CC(=O)CCl)c1 [10-I19, 1-chloro-3-(3-methylphenyl)propan-2-one]",92.7333
9,"Cn1cc(C=C(C#N)C(=O)Nc2ccccc2F)c(-c2ccncc2)n1 [9-L15, 2-cyano-N-(2-fluorophenyl)-3-[1-methyl-3-(pyridin-4-yl)-1H-pyrazol-4-yl]prop-2-enamide]",89.6669
10,"CC(C)NS(=O)(=O)c1ccc(NC(=O)C(C)Cl)cc1 (stereo not drawn) [6-B10, 2-chloro-N-{4-[(propan-2-yl)sulfamoyl]phenyl}propanamide]",81.7518
11,"CN(CCOc1ccccc1F)C(=O)CCl [6-C03, 2-chloro-N-[2-(2-fluorophenoxy)ethyl]-N-methylacetamide]",107.84
12,"COc1cc(CN(C(=O)CCl)C2CC2)ccc1O [7-H18, 2-chloro-N-cyclopropyl-N-[(4-hydroxy-3-methoxyphenyl)methyl]acetamide]",76.9205
13,"CN(C(=O)CCl)C1CCN(c2ccccc2F)C1=O (stereo not drawn) [5-A18, 2-chloro-N-[1-(2-fluorophenyl)-2-oxopyrrolidin-3-yl]-N-methylacetamide]",104.066
14,"COc1ccc(OC)c(NC(=O)CCl)c1 [6-O04, 2-chloro-N-(2,5-dimethoxyphenyl)acetamide]",96.0091
15,"CC(Cl)C(=O)N1CCCC(n2ncc(N(C)C(C)C)cc2=O)C1 (stereo not drawn) [6-H09, 2-[1-(2-chloropropanoyl)piperidin-3-yl]-5-[methyl(propan-2-yl)amino]-2,3-dihydropyridazin-3-one]",92.3689
16,"C=CC(=O)Nc1ccc(S(=O)(=O)N(C)C)c(C)c1 [2-E06, N-[4-(dimethylsulfamoyl)-3-methylphenyl]prop-2-enamide]",93.4382
17,"Cc1ccc(C(NC(=O)CCl)c2cccs2)cc1 (stereo not drawn) [4-H16, 2-chloro-N-[(4-methylphenyl)(thiophen-2-yl)methyl]acetamide]",105.758
18,"Cc1cc(C(=O)CCl)c(C)s1 [10-K16, 2-chloro-1-(2,5-dimethylthiophen-3-yl)ethan-1-one]",28.6772
19,"C=CC(=O)N[C@H]1C[C@H](C)S(=O)(=O)c2sccc21 [3-C14, N-[(2S,4S)-2-methyl-1,1-dioxo-2H,3H,4H-1lambda6-thieno[2,3-b]thiopyran-4-yl]prop-2-enamide]",101.617
20,"C=CC(=O)N(CC)CC(=O)N1CC(C)(C)C1c1nccn1C (stereo not drawn) [2-J16, N-{2-[3,3-dimethyl-2-(1-methyl-1H-imidazol-2-yl)azetidin-1-yl]-2-oxoethyl}-N-ethylprop-2-enamide]",90.3503
21,"C=CC(=O)N1CCCC1c1nc(N(C)C)no1 (stereo not drawn) [2-C21, 1-{2-[3-(dimethylamino)-1,2,4-oxadiazol-5-yl]pyrrolidin-1-yl}prop-2-en-1-one]",105.481
22,"CC(Cl)C(=O)NCc1cccc(Cn2cnc3ccccc32)c1 (stereo not drawn) [6-O16, N-({3-[(1H-1,3-benzodiazol-1-yl)methyl]phenyl}methyl)-2-chloropropanamide]",90.2455
23,"C=CC(=O)N1CCC(c2noc3cc(F)ccc23)CC1 [3-I07, 1-[4-(6-fluoro-1,2-benzoxazol-3-yl)piperidin-1-yl]prop-2-en-1-one]",89.796

row,Structure (SMILES),% of control remaining [%]
1,"CC(Cl)C(=O)NCCC1(C)OCCO1 (stereo not drawn) [7-E17, 2-chloro-N-[2-(2-methyl-1,3-dioxolan-2-yl)ethyl]propanamide]",77.7135
2,"CC(Cl)C(=O)Nc1cc([N+](=O)[O-])ccc1Cl (stereo not drawn) [6-I14, 2-chloro-N-(2-chloro-5-nitrophenyl)propanamide]",87.6671
3,"CC(Cl)C(=O)NC(=O)Nc1ccc2c(c1)OCCO2 (stereo not drawn) [5-D08, 3-(2-chloropropanoyl)-1-(2,3-dihydro-1,4-benzodioxin-6-yl)urea]",90.4487
4,"O=C(CCl)Nc1ccc(OC(F)F)c(Cl)c1 [4-F14, 2-chloro-N-[3-chloro-4-(difluoromethoxy)phenyl]acetamide]",82.9847
5,"C=CC(=O)NCCC(=O)N1CCCN(C(=O)c2ccccc2F)CC1 [2-D20, N-{3-[4-(2-fluorobenzoyl)-1,4-diazepan-1-yl]-3-oxopropyl}prop-2-enamide]",96.9893
6,"CC1CC(NC(=O)CCl)C(=O)N1c1cnn(C)c1 (stereo not drawn) [5-O08, 2-chloro-N-[5-methyl-1-(1-methyl-1H-pyrazol-4-yl)-2-oxopyrrolidin-3-yl]acetamide]",97.846
7,"COc1c(C)cnc(CN2CCC(N(C)C(=O)C(C)Cl)CC2)c1C (stereo not drawn) [6-A04, 2-chloro-N-{1-[(4-methoxy-3,5-dimethylpyridin-2-yl)methyl]piperidin-4-yl}-N-methylpropanamide]",102.076
8,"N#CC(=Cc1ccccc1)C(=O)Nc1ccccc1F [8-C13, 2-cyano-N-(2-fluorophenyl)-3-phenylprop-2-enamide]",77.1584
9,"Cc1cc(C=C(C#N)C(=O)Nc2cnn(C)c2)c(C)n1C1CCCCC1 [9-B17, 2-cyano-3-(1-cyclohexyl-2,5-dimethyl-1H-pyrrol-3-yl)-N-(1-methyl-1H-pyrazol-4-yl)prop-2-enamide]",58.1237
10,"CCN(C(=O)CCl)c1c(N)n(Cc2ccccc2)c(=O)[nH]c1=O [4-P10, N-(6-amino-1-benzyl-2,4-dioxo-1,2,3,4-tetrahydropyrimidin-5-yl)-2-chloro-N-ethylacetamide]",116.8
11,"CC(Cl)C(=O)NCC1CC(=O)N(c2ccccc2)C1 (stereo not drawn) [7-O20, 2-chloro-N-[(5-oxo-1-phenylpyrrolidin-3-yl)methyl]propanamide]",80.7533
12,"C=CC(=O)NCc1ccno1 [1-O07, N-[(1,2-oxazol-5-yl)methyl]prop-2-enamide]",86.846
13,"CC(C)(C)C1CCc2c(sc(NC(=O)CCl)c2C#N)C1 (stereo not drawn) [5-E17, N-(6-tert-butyl-3-cyano-4,5,6,7-tetrahydro-1-benzothiophen-2-yl)-2-chloroacetamide]",100.536
14,"Cc1cccc(C=C(C#N)C(=O)NC(C)c2ccccc2)c1 (stereo not drawn) [8-F18, 2-cyano-3-(3-methylphenyl)-N-(1-phenylethyl)prop-2-enamide]",66.8253
15,"Cc1ccc(NC(=O)C2(CNC(=O)C(C)Cl)CCCC2)cc1C (stereo not drawn) [7-J13, 1-[(2-chloropropanamido)methyl]-N-(3,4-dimethylphenyl)cyclopentane-1-carboxamide]",74.8059
16,"CC(C1CC1)N(CC(F)(F)F)C(=O)CCl (stereo not drawn) [5-P08, 2-chloro-N-(1-cyclopropylethyl)-N-(2,2,2-trifluoroethyl)acetamide]",105.579
17,"CC(Cl)C(=O)Nc1ccccc1Cl (stereo not drawn) [4-D11, 2-chloro-N-(2-chlorophenyl)propanamide]",95.579
18,"O=C(CCl)N(c1ccccc1)C1CCCCC1 [4-L18, 2-chloro-N-cyclohexyl-N-phenylacetamide]",111.969
19,"COc1ccc(C=C(C#N)C(=O)Nc2cccc(Cl)c2)cc1 [8-I09, N-(3-chlorophenyl)-2-cyano-3-(4-methoxyphenyl)prop-2-enamide]",74.3032
20,"O=C(CCl)N1CCCSc2ccccc21 [4-E16, 2-chloro-1-(2,3,4,5-tetrahydro-1,5-benzothiazepin-5-yl)ethan-1-one]",94.5439
21,"C=CC(=O)N(C)Cc1cccnc1 [3-L11, N-methyl-N-[(pyridin-3-yl)methyl]prop-2-enamide]",90.5017
22,"Cc1cc(C(=O)CCl)c(C)n1-c1ccc(C(C)C)cc1 [10-J12, 2-chloro-1-{2,5-dimethyl-1-[4-(propan-2-yl)phenyl]-1H-pyrrol-3-yl}ethan-1-one]",88.5252
